Measured values reported in article PMC12607630.
No constants are given. Whether binding was seen depends on the method and setting. Some binding calls cover weakened binding; strength is not graded here. Sequences can lack the tags named with a protein.

Amino acid sequences for entries named in this document (tags omitted). Residues count along the entry.
FtsZ^316-383 (bacterial two-hybrid fusion) (P0A9A6, residues 316-383): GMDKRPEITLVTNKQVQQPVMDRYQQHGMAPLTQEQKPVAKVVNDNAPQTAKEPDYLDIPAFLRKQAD
FtsZ^316-370 (bacterial two-hybrid fusion) (P0A9A6, residues 316-370): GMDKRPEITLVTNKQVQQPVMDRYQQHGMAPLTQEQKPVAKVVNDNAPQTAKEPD

Key:
Experiment in all cases: two-hybrid; bacterial two-hybrid in strain LYA1 (BTH101, ftsA^R286W); LB plates with antibiotics, 100 µg/mL X-gal and IPTG, 30°C, about 40 hours
[1] = molecular target: FtsZ^316-370 (bacterial two-hybrid fusion) (Escherichia coli) (UniProt P0A9A6)
[2] = molecular target: FtsZ^316-383 (bacterial two-hybrid fusion) (Escherichia coli) (UniProt P0A9A6)
[3] = molecular target: FtsZ^370-383 (bacterial two-hybrid fusion) (Escherichia coli) (UniProt P0A9A6)
[4] = molecular target: T1, FtsZ^370-383 (bacterial two-hybrid fusion) (Escherichia coli), P0A9A6; settings: remark: other sources report otherwise
T1 chain: DYLDIPAFLRKQAD

B1: FtsA (bacterial two-hybrid fusion) (protein, UniProt P0ABH0 1-420)
chain: MIKATDRKLVVGLEIGTAKVAALVGEVLPDGMVNIIGVGSCPSRGMDKGGVNDLESVVKCVQRAIDQAELMADCQISSVYLALSGKHISCQNEIGMVPISEEEVTQEDVENVVHTAKSVRVRDEHRVLHVIPQEYAIDYQEGIKNPVGLSGVRMQAKVHLITCHNDMAKNIVKAVERCGLKVDQLIFAGLASSYSVLTEDERELGVCVVDIGGGTMDIAVYTGGALRHTKVIPYAGNVVTSDIAYAFGTPPSDAEAIKVRHGCALGSIVGKDESVEVPSVGGRPPRSLQRQTLAEVIEPRYTELLNLVNEEILQLQEKLRQQGVKHHLAAGIVLTGGAAQIEGLAACAQRVFHTQVRIGAPLNITGLTDYAQEPYYSTAVGLLHYGKESHLNGEAEVEKRVTASVGSWIKRLNSWLRKEF
[1]
  binding: no binding
[2]
  binding: binds
[3]
  binding: no binding

B2: SlmA (bacterial two-hybrid fusion) (protein, UniProt P0C093 1-198)
chain: MAEKQTAKRNRREEILQSLALMLESSDGSQRITTAKLAASVGVSEAALYRHFPSKTRMFDSLIEFIEDSLITRINLILKDEKDTTARLRLIVLLLLGFGERNPGLTRILTGHALMFEQDRLQGRINQLFERIEAQLRQVLREKRMREGEGYTTDETLLASQILAFCEGMLSRFVRSEFKYRPTDDFDARWPLIAAQLQ
[1]
  binding: no binding
[2]
  binding: binds

B3: MinC (bacterial two-hybrid fusion) (protein, UniProt P18196 1-231)
chain: MSNTPIELKGSSFTLSVVHLHEAEPKVIHQALEDKIAQAPAFLKHAPVVLNVSALEDPVNWSAMHKAVSATGLRVIGVSGCKDAQLKAEIEKMGLPILTEGKEKAPRPAPTPQAPAQNTTPVTKTRLIDTPVRSGQRIYAPQCDLIVTSHVSAGAELIADGNIHVYGMMRGRALAGASGDRETQIFCTNLMAELVSIAGEYWLSDQIPAEFYGKAARLQLVENALTVQPLN
[1]
  binding: no binding
[2]
  binding: binds
[3]
  binding: no binding

B4: SlmA (bacterial two-hybrid fusion), P0C093 1-198 (protein)
chain: MAEKQTAKRNRREEILQSLALMLESSDGSQRITTAKLAASVGVSEAALYRHFPSKTRMFDSLIEFIEDSLITRINLILKDEKDTTARLRLIVLLLLGFGERNPGLTRILTGHALMFEQDRLQGRINQLFERIEAQLRQVLREKRMREGEGYTTDETLLASQILAFCEGMLSRFVRSEFKYRPTDDFDARWPLIAAQLQ
[4]
  binding: no binding
